# According to the supplement of paper PMC8728848:
# Some of the results follow.
# Tests used:
# Experiment in all cases: glycan array binding signal (z-score within array); higher = stronger binding
# Settings in all cases: glycan notation: IUPAC condensed, linker removed
# [1] = biological target: Fuc(a1-2)Gal(b1-4)[Fuc(a1-3)]GlcNAc(b1-3)GalNAc
# Method in brief: (§1)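 Arrays were curated from the Consortium for Functional Glycomics database, 3228 in total, and kept only where the protein sequence was available. Binding is expressed as a within-array Z-score. This score was averaged across arrays of the same protein sequence at different concentrations or buffers and across linkers, and negative values can be read as non-binding.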
# [2] = biological target: Fuc(a1-2)Gal(b1-4)[Fuc(a1-3)]GlcNAc(b1-3)[Neu5Ac(a2-6)Gal(b1-4)GlcNAc(b1-6)]Gal(b1-4)Glc
# Method in brief: as §1
# [3] = biological target: Fuc(a1-2)Gal3S(b1-4)GlcNAc
# Method in brief: as §1
# [4] = biological target: Fuc(a1-2)Gal6S(b1-3)GlcNAc
# Method in brief: as §1
# [5] = biological target: Fuc(a1-2)Gal6S(b1-3)GlcNAc6S
# Method in brief: as §1
# Fuc(a1-2)Gal6S(b1-4)Glc = biological target: Fuc(a1-2)Gal6S(b1-4)Glc
# Method in brief: as §1
# [6] = biological target: Fuc(a1-2)Gal6S(b1-4)Glc6S
# Method in brief: as §1
# Fuc(a1-2)GlcNAc = biological target: Fuc(a1-2)GlcNAc
# Method in brief: as §1
# Fuc(a1-2)[Gal(a1-3)]Gal = biological target: Fuc(a1-2)[Gal(a1-3)]Gal
# Method in brief: as §1
# [7] = biological target: Fuc(a1-2)[Gal(a1-3)]Gal(b1-3)GalNAc
# Method in brief: as §1
# [8] = biological target: Fuc(a1-2)[Gal(a1-3)]Gal(b1-3)GalNAc(b1-3)Gal(a1-4)Gal(b1-4)Glc
# Method in brief: as §1
# [9] = biological target: Fuc(a1-2)[Gal(a1-3)]Gal(b1-3)GlcNAc
# Method in brief: as §1
# [10] = biological target: Fuc(a1-2)[Gal(a1-3)]Gal(b1-3)GlcNAc(b1-2)Man(a1-3)[Fuc(a1-2)[Gal(a1-3)]Gal(b1-3)GlcNAc(b1-2)Man(a1-6)]Man(b1-4)GlcNAc(b1-4)GlcNAc
# Method in brief: as §1
# [11] = biological target: Fuc(a1-2)[Gal(a1-3)]Gal(b1-3)GlcNAc(b1-2)Man(a1-3)[Fuc(a1-2)[Gal(a1-3)]Gal(b1-3)GlcNAc(b1-2)Man(a1-6)]Man(b1-4)GlcNAc(b1-4)[Fuc(a1-6)]GlcNAc
# Method in brief: as §1
# [12] = biological target: Fuc(a1-2)[Gal(a1-3)]Gal(b1-3)GlcNAc(b1-3)GalNAc
# Method in brief: as §1
# [13] = biological target: Fuc(a1-2)[Gal(a1-3)]Gal(b1-3)GlcNAc(b1-6)GalNAc
# Method in brief: as §1
# [14] = biological target: Fuc(a1-2)[Gal(a1-3)]Gal(b1-4)Glc
# Method in brief: as §1
# [15] = biological target: Fuc(a1-2)[Gal(a1-3)]Gal(b1-4)GlcNAc
# Method in brief: as §1
# [16] = biological target: Fuc(a1-2)[Gal(a1-3)]Gal(b1-4)GlcNAc(b1-2)Man
# Method in brief: as §1
# [17] = biological target: Fuc(a1-2)[Gal(a1-3)]Gal(b1-4)GlcNAc(b1-2)Man(a1-3)[Fuc(a1-2)[Gal(a1-3)]Gal(b1-4)GlcNAc(b1-2)Man(a1-6)]Man(b1-4)GlcNAc(b1-4)GlcNAc
# Method in brief: as §1
# [18] = biological target: Fuc(a1-2)[Gal(a1-3)]Gal(b1-4)GlcNAc(b1-2)Man(a1-3)[Fuc(a1-2)[Gal(a1-3)]Gal(b1-4)GlcNAc(b1-2)Man(a1-6)]Man(b1-4)GlcNAc(b1-4)[Fuc(a1-6)]GlcNAc
# Method in brief: as §1
# [19] = biological target: Fuc(a1-2)[Gal(a1-3)]Gal(b1-4)GlcNAc(b1-3)GalNAc
# Method in brief: as §1
# [20] = biological target: Fuc(a1-2)[Gal(a1-3)]Gal(b1-4)GlcNAc(b1-3)[Fuc(a1-2)[Gal(a1-3)]Gal(b1-4)GlcNAc(b1-6)]GalNAc
# Method in brief: as §1
# [21] = biological target: Fuc(a1-2)[Gal(a1-3)]Gal(b1-4)GlcNAc(b1-6)GalNAc
# Method in brief: as §1
# [22] = biological target: Fuc(a1-2)[Gal(a1-3)]Gal(b1-4)[Fuc(a1-3)]Glc
# Method in brief: as §1
# [23] = biological target: Fuc(a1-2)[Gal(a1-3)]Gal(b1-4)[Fuc(a1-3)]GlcNAc
# Method in brief: as §1
# [24] = biological target: Fuc(a1-2)[Gal(a1-3)]Gal(b1-4)[Fuc(a1-3)]GlcNAc(b1-3)GalNAc
# Method in brief: as §1
# [25] = biological target: Fuc(a1-2)[Gal(a1-4)]Gal(b1-4)GalNAc
# Method in brief: as §1
# [26] = biological target: Fuc(a1-2)[Gal(a1-4)]Gal(b1-4)GlcNAc
# Method in brief: as §1
# [27] = biological target: Fuc(a1-2)[GalNAc(a1-3)]Gal
# Method in brief: as §1
# [28] = biological target: Fuc(a1-2)[GalNAc(a1-3)]Gal(b1-3)GalNAc(a1-3)[Fuc(a1-2)]Gal(b1-4)GlcNAc
# Method in brief: as §1
# [29] = biological target: Fuc(a1-2)[GalNAc(a1-3)]Gal(b1-3)GalNAc(b1-3)Gal(a1-4)Gal(b1-4)Glc
# Method in brief: as §1
# [30] = biological target: Fuc(a1-2)[GalNAc(a1-3)]Gal(b1-3)GlcNAc
# Method in brief: as §1
# [31] = biological target: Fuc(a1-2)[GalNAc(a1-3)]Gal(b1-3)GlcNAc(b1-2)Man(a1-3)[Fuc(a1-2)[GalNAc(a1-3)]Gal(b1-3)GlcNAc(b1-2)Man(a1-6)]Man(b1-4)GlcNAc(b1-4)GlcNAc
# Method in brief: as §1
# [32] = biological target: Fuc(a1-2)[GalNAc(a1-3)]Gal(b1-3)GlcNAc(b1-2)Man(a1-3)[Fuc(a1-2)[GalNAc(a1-3)]Gal(b1-3)GlcNAc(b1-2)Man(a1-6)]Man(b1-4)GlcNAc(b1-4)[Fuc(a1-6)]GlcNAc
# Method in brief: as §1
# [33] = biological target: Fuc(a1-2)[GalNAc(a1-3)]Gal(b1-3)GlcNAc(b1-3)GalNAc
# Method in brief: as §1
# [34] = biological target: Fuc(a1-2)[GalNAc(a1-3)]Gal(b1-3)GlcNAc(b1-6)GalNAc
# Method in brief: as §1
# [35] = biological target: Fuc(a1-2)[GalNAc(a1-3)]Gal(b1-4)Glc
# Method in brief: as §1
# [36] = biological target: Fuc(a1-2)[GalNAc(a1-3)]Gal(b1-4)GlcNAc
# Method in brief: as §1
# [37] = biological target: Fuc(a1-2)[GalNAc(a1-3)]Gal(b1-4)GlcNAc(b1-2)Man
# Method in brief: as §1
# [38] = biological target: Fuc(a1-2)[GalNAc(a1-3)]Gal(b1-4)GlcNAc(b1-2)Man(a1-3)[Fuc(a1-2)[GalNAc(a1-3)]Gal(b1-4)GlcNAc(b1-2)Man(a1-6)]Man(b1-4)GlcNAc(b1-4)GlcNAc
# Method in brief: as §1
# [39] = biological target: Fuc(a1-2)[GalNAc(a1-3)]Gal(b1-4)GlcNAc(b1-2)Man(a1-3)[Fuc(a1-2)[GalNAc(a1-3)]Gal(b1-4)GlcNAc(b1-2)Man(a1-6)]Man(b1-4)GlcNAc(b1-4)[Fuc(a1-6)]GlcNAc
# Method in brief: as §1
# [40] = biological target: Fuc(a1-2)[GalNAc(a1-3)]Gal(b1-4)GlcNAc(b1-3)Gal(b1-4)GlcNAc
# Method in brief: as §1
# [41] = biological target: Fuc(a1-2)[GalNAc(a1-3)]Gal(b1-4)GlcNAc(b1-3)Gal(b1-4)GlcNAc(b1-3)Gal(b1-4)GlcNAc
# Method in brief: as §1
# [42] = biological target: Fuc(a1-2)[GalNAc(a1-3)]Gal(b1-4)GlcNAc(b1-3)GalNAc
# Method in brief: as §1
binder,measurement,setting,value
"OVGAL11 (Ovis aries), AAF64320 (protein) MDSLPNPYLQSVSLTVCYMVKIKANLLSAFGKNPELQVDFGTGTGQGGNIPFRFWYCDGMVVMNTFTDGSWQKEEKVLTDAFVPGQPFELQFLVLEKEYQVFVKNKPICQFAHRLPLQSVKMLDVRGDIVLTSVDTL",glycan array binding signal (z-score),[1],-0.063
same,glycan array binding signal (z-score),[2],-0.052
same,glycan array binding signal (z-score),[3],-0.066
same,glycan array binding signal (z-score),[4],-0.107
same,glycan array binding signal (z-score),[5],-0.069
same,glycan array binding signal (z-score),Fuc(a1-2)Gal6S(b1-4)Glc,-0.115
same,glycan array binding signal (z-score),[6],-0.105
same,glycan array binding signal (z-score),Fuc(a1-2)GlcNAc,-0.076
same,glycan array binding signal (z-score),Fuc(a1-2)[Gal(a1-3)]Gal,-0.111
same,glycan array binding signal (z-score),[7],-0.092
same,glycan array binding signal (z-score),[8],-0.05
same,glycan array binding signal (z-score),[9],-0.153
same,glycan array binding signal (z-score),[10],-0.117
same,glycan array binding signal (z-score),[11],-0.03
same,glycan array binding signal (z-score),[12],-0.116
same,glycan array binding signal (z-score),[13],-0.09
same,glycan array binding signal (z-score),[14],-0.199
same,glycan array binding signal (z-score),[15],0.2
same,glycan array binding signal (z-score),[16],-0.09
same,glycan array binding signal (z-score),[17],-0.025
same,glycan array binding signal (z-score),[18],-0.071
same,glycan array binding signal (z-score),[19],-0.115
same,glycan array binding signal (z-score),[20],-0.065
same,glycan array binding signal (z-score),[21],-0.075
same,glycan array binding signal (z-score),[22],-0.103
same,glycan array binding signal (z-score),[23],-0.101
same,glycan array binding signal (z-score),[24],-0.064
same,glycan array binding signal (z-score),[25],-0.089
same,glycan array binding signal (z-score),[26],-0.027
same,glycan array binding signal (z-score),[27],-0.03
same,glycan array binding signal (z-score),[28],-0.097
same,glycan array binding signal (z-score),[29],-0.086
same,glycan array binding signal (z-score),[30],-0.073
same,glycan array binding signal (z-score),[31],-0.071
same,glycan array binding signal (z-score),[32],-0.064
same,glycan array binding signal (z-score),[33],-0.082
same,glycan array binding signal (z-score),[34],-0.072
same,glycan array binding signal (z-score),[35],0.204
same,glycan array binding signal (z-score),[36],0.444
same,glycan array binding signal (z-score),[37],-0.118
same,glycan array binding signal (z-score),[38],-0.069
same,glycan array binding signal (z-score),[39],-0.088
same,glycan array binding signal (z-score),[40],-0.098
same,glycan array binding signal (z-score),[41],-0.076
same,glycan array binding signal (z-score),[42],-0.044
